Assays:
[1] = tested on: CMV Towne (IE1/2, UL84, pp65); conditions: HFFs, 72 hpi; for level of viral proteins (pp65, UL84, IE1/2) by Western blot: 10 µM; for viral protein expression by Western blot: concentration given only in Figure 1C; for level of viral proteins UL84 and pp65 by Western blot: 3 µM
[2] = tested on: pp28-luciferase recombinant Towne CMV; conditions: HFFs; tested at 3–30 µM
pp28-luciferase CMV [3] = test: Add-on and removal assays; conditions: 3 µM, added or removed at different times, luciferase at 72 hpi, MOI = 0.1 PFU/cell
pp28-luciferase CMV [4] = test: microbe, parasite or virus in culture; conditions: Human betaherpesvirus 5, Hepatocyte, read-out: EC50 in CMV-infected primary human hepatocytes
pp28-luciferase CMV [5] = tested on: pp28-luciferase CMV
[6] = tested on: ganciclovir resistant pp28-luciferase CMV; set-up: method as in ref 24 = [24]; conditions: cited from earlier work

O=C(NCCc1ccccn1)C1CCN(C(=O)c2cccn2Cc2ccc(Cl)cc2)CC1 [Compound 5]
level of viral proteins (pp65, UL84, IE1/2) by Western blot [1]: no reduction

CC(C)NC(=O)C1CCCN(C(=O)c2cc3sccc3n2Cc2ccc(Cl)cc2)C1 (stereo not shown) [Compound 2]
inhibition of pp28-luciferase CMV (anti-CMV activity, in words) [2]: loss of anti-CMV activity

CC(C)NC(=O)C1CCN(C(=O)c2cccn2Cc2ccc(Cl)cc2)CC1 [Compound 4]
inhibition of pp28-luciferase CMV (anti-CMV activity, in words) [2]: loss of anti-CMV activity even at 30 µM

O=C(NCCc1ccncc1)C1CCN(C(=O)c2cccn2Cc2ccc(Cl)cc2)CC1 [Compound 7]
viral protein expression by Western blot [1]: significant inhibition of protein expression
timing of maximal CMV inhibition (pp28-luciferase CMV [3]): overlapped with that of GCV
EC50 (pp28-luciferase CMV [4]): 3.4 ± 1.3 µM

O=C(NCCc1cccnc1)C1CCN(C(=O)c2cccn2Cc2ccc(Cl)cc2)CC1 [Compound 6]
level of viral proteins (pp65, UL84, IE1/2) by Western blot [1]: no reduction

O=C(NCCc1ccncc1)C1CCN(C(=O)c2cc3ccccc3n2Cc2ccc(Cl)cc2)CC1 [Compound 8]
level of viral proteins UL84 and pp65 by Western blot [1]: reduced
calculated Bliss coefficient over all combinations (pp28-luciferase CMV [5]; 8 with MLS8969, NFU1827, MLS8554, MLS8091 and GCV): 1–1.3
combination effect (in words) (pp28-luciferase CMV [5]; 8 with newly identified CMV inhibitors and GCV): additive
timing of maximal CMV inhibition (pp28-luciferase CMV [3]): overlapped with that of GCV
EC50 (pp28-luciferase CMV [4]): 2.9 ± 0.1 µM

Nc1nc(O)c2ncn(COC(CO)CO)c2n1 [GCV, ganciclovir, reference compound]
Bliss Coefficient (pp28-luciferase CMV [5]; combination of the labelled compound with Compound 8, ratio observed/expected fold inhibition): 1.3

CC(C)NC(=O)C1CCN(C(=O)c2cc3ccccc3n2Cc2ccc(Cl)cc2)CC1 [Compound 3]
inhibition of pp28-luciferase CMV (anti-CMV activity, in words) [2]: loss of anti-CMV activity even at 30 µM
level of viral proteins (pp65, UL84, IE1/2) by Western blot [1]: no inhibitory activity

CC(C)NC(=O)C1CCN(C(=O)c2cc3sccc3n2Cc2ccc(Cl)cc2)CC1 [Compound 1]
level of viral proteins UL84 and pp65 by Western blot [1]: reduced
viral protein expression by Western blot [1]: significant inhibition of protein expression
in vitro activity against ganciclovir resistant pp28-luciferase CMV [6]: low µM concentrations
EC50 (pp28-luciferase CMV [4]): 3.3 ± 0.7 µM
